Results: PubChem BioAssay AID463173 (ICCB-Longwood Screening Facility, Harvard Medical School, 2010)
Among all 52,000 compounds or so, about 4,300 (8.3%) were called active. No stated cut-off is given here; in the data, active means survival mostly below about 52% (no sharp cut-off); inactive means mostly above about 56%. Some of the results follow.

The compounds below were run on DeltatarO mutant (assay: growth inhibition of S. aureus wild type versus tarO mutant, primary screen, teichoic acid synthesis inhibitors, RN4220, OD600 (AID 463173)). Conditions: OD600, 18 h, active compounds read low, screened at 18.75 µg/mL (by protocol).

Row | SMILES | survival
1 | Cc1cc(C)cc(-n2c(SCC(=O)N3CCCC3)nc3c([nH]c4ccccc43)c2=O)c1 | inactive: 89%
2 | Cc1nn(C(=O)c2ccccc2)c2c1C(=O)CC(C)(C)C2 | inactive: 74%
3 | Cn1c(=O)n(-c2ccc3c(c2)OCO3)c2nc(-c3ccc(Cl)cc3)nc(C(N)=O)c21 | inactive: 61%
4 | CCC(c1nnnn1Cc1ccccc1)N(Cc1cccs1)Cc1cc2ccc(C)cc2[nH]c1=O (stereo not drawn) | inactive: 103%
5 | O=C(CCC1N=C2c3ccccc3N=C(SCc3ccccc3Cl)N2C1=O)NCCc1ccccc1 (stereo not drawn) | inactive: 96%
6 | Cc1ccccc1NC(=O)CSc1nc(-c2ccc(F)cc2)nc2c1Cc1ccccc1O2 | inactive: 86%
7 | Cc1nc2ccccc2n1CCc1nc2c3ccccc3nc(SCC(=O)Nc3cccc(C(F)(F)F)c3)n2n1 | inactive: 85%
8 | CCc1ccc2ncc(S(=O)(=O)c3ccc(Cl)cc3)c(N3CCN(CC)CC3)c2c1 | inactive: 78%
9 | O=C(/C=C/c1ccccc1)NC1CCSC1=O (stereo not drawn) | inactive: 107%
10 | CC(C)CN(CCCNC(=O)c1cc(-c2ccc(Br)s2)nc2ccccc12)CC(C)C | inactive: 91%
11 | COc1ccc(CCNC(=O)C2(c3cccs3)CCOCC2)cc1 | inactive: 122%
12 | O=C(Nc1nonc1-c1ccc(Cl)cc1)c1ccccc1F | inactive: 49%
13 | COc1ccc(N2CC(NC(=O)/C=C\c3ccc4c(c3)OCO4)CC2=O)cc1 (stereo not drawn) | inactive: 78%
14 | COc1ccc(NC(=O)C2CCN(S(=O)(=O)c3ccc4[nH]c(=O)ccc4c3)CC2)cc1Cl | inactive: 124%
15 | COc1cc(OC)c(NC(=O)C(c2ccccc2)N2Cc3ccccc3C2=O)cc1Cl (stereo not drawn) | inactive: 73%
16 | CCS(=O)(=O)N1CC(=O)N(c2ccc(Cl)cc2C)C(C)(C(=O)NC2CCCCCC2)C1 (stereo not drawn) | inactive: 83%
17 | CCc1nnc(SCc2cccc(F)c2)c2cc3sc(C)cc3n12 | inactive: 74%
18 | CCOc1ccc(N2CC(c3nc4ccccc4n3CCCOc3ccccc3OC)CC2=O)cc1 (stereo not drawn) | inactive: 81%
19 | CCS(=O)(=O)N1CCN(C(=O)c2ccccc2Cl)CC1 | inactive: 82%
20 | O=C(Nc1ccc(F)c(Cl)c1)C1CCN(C(=O)c2ccc(F)cc2)CC1 | inactive: 68%
21 | N#Cc1ccccc1Cn1c(=O)n(CCCC(=O)NCc2ccccc2Cl)c(=O)c2ccccc21 | inactive: 129%
22 | O=C(NCc1ccccc1Cl)C1CCN(S(=O)(=O)Cc2ccccc2)CC1 | inactive: 80%

Row | SMILES | survival
23 | COc1ccc(Cl)cc1NC(=O)CSC1=Nc2ccccc2C2=NC(CCC(=O)NCc3ccc(F)cc3)C(=O)N12 (stereo not drawn) | inactive: 107%
24 | Cc1nc2ccn(Cc3ccco3)c(=O)c2cc1C(=O)NCc1ccccc1F | inactive: 86%
25 | Cc1nnc(SCc2cc(=O)n3cccc(C)c3n2)s1 | inactive: 97%
26 | COCCCNC(=O)c1ccc(Cn2c(=O)c3ccccc3n(CC(=O)Nc3c(C)cccc3C)c2=O)cc1 | inactive: 80%
27 | CCOc1cc(C(=O)Nc2ccc3nc(Nc4cccc(Cl)c4)cc(C)c3c2)cc(OCC)c1OCC | inactive: 98%
28 | Cc1cccc(CCNC(=O)C2CCC(CNS(=O)(=O)c3ccccc3)CC2)c1 (stereo not drawn) | inactive: 77%
29 | CCCC(CCC)C(=O)Nc1cccc(-c2nc3cccnc3s2)c1C | inactive: 110%
30 | COc1cccc(-c2nc(CS(=O)(=O)CC(=O)NCCc3ccc(OC)cc3OC)c(C)o2)c1 | inactive: 58%
31 | O=C(NCCc1csc2nc(-c3ccccc3F)nn12)c1ccccc1C(F)(F)F | inactive: 82%
32 | COc1cccc(CN(C(=O)c2ccc(C(C)(C)C)cc2)C2CCS(=O)(=O)C2)c1 (stereo not drawn) | inactive: 70%
33 | O=C(CN1CCC(N2CCCCC2)CC1)Nc1ccc2c(c1)OCCO2 | inactive: 96%
34 | CCOC(=O)Cn1c(=O)oc2cc(S(=O)(=O)N3CCN(c4ccccc4OC)CC3)ccc21 | inactive: 65%
35 | O=C(CN1C(=O)c2cccc3cccc1c23)Nc1ccccc1 | inactive: 70%
36 | OC1(c2ccccc2)CCN(Cc2ccccc2)CC1 | inactive: 73%
37 | CCOC(=O)c1c(NC(=O)CCCOc2ccc(Cl)cc2)sc2c1CCC2 | active: 17%
38 | COc1ccc(CNC(=O)c2ccc(NC(=O)N3CCSc4ncccc43)cc2)cc1OC | inactive: 76%
39 | COc1ccc(-c2oc3ncn4nc(COc5ccc(C)cc5)nc4c3c2-c2ccc(OC)cc2)cc1 | inactive: 82%
40 | COc1ccc(NC(=O)c2cnn(-c3ccc(F)cc3F)c2C2CCN(C(=O)OC(C)(C)C)CC2)cc1Cl | inactive: 72%
41 | O=C(C1CCCN(S(=O)(=O)c2cccc3nonc23)C1)N1CCN(c2ccccc2Cl)CC1 (stereo not drawn) | inactive: 69%
42 | COc1ccc(CCNC(=O)c2ccc3nc(Cc4ccccc4)oc3c2)cc1OC | inactive: 99%
43 | COc1ccc(N(CC(=O)NCCc2ccccc2)S(=O)(=O)c2ccc(OC)c(OC)c2)cc1 | inactive: 61%
44 | Cc1cc(=O)[nH]c(SCc2nnc(-c3ccccc3)o2)n1 | inactive: 103%

Row | SMILES | survival
45 | CCCOc1ccc(C(=O)Nc2ccc3nn(-c4ccc(OC)c(Cl)c4)nc3c2)cc1 | inactive: 128%
46 | Cc1ccccc1NC(=O)c1c(C)oc2ccc(O)c(CN3CCC(C)CC3)c12 | inactive: 84%
47 | COCCCNC(=O)c1ccc(Cn2c(=O)c3ccccc3n(Cc3ccccc3C)c2=O)cc1 | inactive: 103%
48 | CCOc1ccc(-c2nnc(SCC(=O)Nc3cc(F)ccc3F)o2)cc1 | inactive: 60%
49 | COc1cccc2c1Oc1nc(-c3ccccc3)nc(SCC(=O)Nc3ccccc3)c1C2 | inactive: 81%
50 | COc1ccc(NC(=O)Cn2c(=O)oc3cc(S(=O)(=O)N4CCCCC4C)ccc32)cc1 (stereo not drawn) | active: 47%
51 | Cc1oc(-c2ccc(C(=O)NC(C)c3ccccc3)cc2)nc1CS(=O)(=O)c1ccccc1 (stereo not drawn) | inactive: 96%
52 | COC(=O)c1ccccc1NC(=O)CCCN1C(=O)C(c2ccccc2)Oc2cccnc21 (stereo not drawn) | inactive: 78%
53 | CCOc1ccccc1NC(=O)n1ncc2cc(Cl)ccc21 | inactive: 99%
54 | C=CCNC(=O)CN1CCC(n2nnc3cc(C(F)(F)F)ccc32)CC1 | inactive: 79%
55 | Cc1ccc(CCNC(=O)c2ccc(CS(=O)(=O)c3ccc(Cl)cc3)o2)cc1 | inactive: 102%
56 | COCCNC(=O)CCCN1C(=O)CCn2nc(-c3cccn3C)cc21 | inactive: 86%
57 | COc1ccc(CCn2c(=O)[nH]c3cc(C(=O)N4CCN(c5ccccc5)CC4)ccc3c2=O)cc1OC | inactive: 73%
58 | Fc1ccc(-c2cn3cc(Cc4ccccc4Cl)sc3n2)cc1 | active: 42%
59 | Cc1cc(O)c(C(c2ccc(Cl)cc2)N2CCN(c3ccccc3)CC2)c(=O)n1Cc1ccco1 (stereo not drawn) | inactive: 83%
60 | Cc1cc2ccccc2n1CCNC(=O)c1ccc(F)cc1 | inactive: 85%
61 | CCN1C(=O)C2(c3ccccc31)c1c(oc3ccc(C)cc3c1=O)C(=O)N2CCCOC(C)C (stereo not drawn) | inactive: 49%
62 | CC1=C(c2ccc(C)cc2)S(=O)(=O)N(Cc2ccc(C(=O)Nc3ccccc3C)cc2)C1=O | inactive: 94%
63 | Cc1ccc(Cl)cc1N(C)C(=O)c1noc2c1CCCCC2 | inactive: 57%
64 | COc1ccc(NC(=O)c2sc3nc(C)c(C(=O)Nc4ccc(C)cc4C)c(-c4ccccc4Cl)c3c2N)cc1 | inactive: 89%
65 | CSCCC(NS(=O)(=O)c1ccc2c(c1)oc(=O)n2C)C(=O)NCc1ccc(F)cc1 (stereo not drawn) | inactive: 108%
66 | COc1ccc(-n2cc(C(=O)N(C)c3cc(C)ccc3OC)c3ccccc3c2=O)cc1 | inactive: 109%

Row | SMILES | survival
67 | O=C(Nc1ccccn1)c1cccs1 | inactive: 109%
68 | O=C(O)C1=C(C(=O)Nc2cccc(C(F)(F)F)c2)CCCC1 | inactive: 74%
69 | COc1ccccc1NC(=O)C1=C(C)Nc2nc(SCC(=O)c3ccc(C)cc3)nn2C1c1ccccc1C (stereo not drawn) | inactive: 71%
70 | CCOc1ccc(NS(=O)(=O)c2ccc3[nH]cc(C(=O)NCCOC)c(=O)c3c2)cc1 | inactive: 72%
71 | CN(C)CCNC(=O)CCCn1c(=O)c2cccn2c2ccccc21 | inactive: 64%
72 | CC(=O)Nc1ccc(NS(=O)(=O)c2cc(Br)cc3c2N(C(=O)C2CC2)CC3)cc1 | inactive: 74%
73 | COc1cc(OC)c(NC(=O)c2cc(C(C)=O)n3ccccc23)cc1Cl | inactive: 85%
74 | O=C1/C(=C/C2=Cc3ccccc3OC2)SC(=S)N1C1CCS(=O)(=O)C1 (stereo not drawn) | active: 44%
75 | COc1ccc(C)cc1NS(=O)(=O)c1c(C)nc2sc(C)cn2c1=O | inactive: 121%
76 | CCOc1ccccc1NC(=O)CSc1ccc2nnc(CCNS(=O)(=O)c3ccccc3)n2n1 | inactive: 50%
77 | COCCNC(=O)CCCn1c(=O)[nH]c2ccsc2c1=O | inactive: 79%
78 | Brc1ccc(-c2noc(-c3ccccc3)n2)o1 | inactive: 75%
79 | Clc1cccc(Cl)c1COc1ccccn1 | inactive: 60%
80 | CN1C(C(=O)c2ccccc2)=C(NC(=O)c2ccc(F)cc2)c2ccccc2S1(=O)=O | inactive: 96%
81 | CCOc1ccc(-c2cc(C(=O)NC(C)c3ccccc3)c3ccccc3n2)cc1 (stereo not drawn) | inactive: 80%
82 | COc1ccc(COC(=O)C2=C(C)NC(=O)CC2c2cccc(Cl)c2Cl)cc1 (stereo not drawn) | inactive: 85%
83 | O=C(Nc1ccc(C(=O)N2CCN(c3ccccc3F)CC2)cc1)c1nsc2ccccc12 | inactive: 79%
84 | CCOCCCNc1nc2c(S(=O)(=O)c3ccc(CC)cc3)nnn2c2ccc(Cl)cc12 | inactive: 78%
85 | O=C(Cn1ncc2c3ccccc3n(Cc3cccc(Cl)c3)c2c1=O)NCCCN1CCCCC1 | inactive: 113%
86 | Cc1ccccc1NC(=O)C(C)Sc1nnc(-c2ccccc2O)o1 (stereo not drawn) | inactive: 69%
87 | Cc1ccc(CNC(=O)Cn2c(=O)cc(C)c3c(C)nn(-c4cccc(F)c4)c32)cc1 | inactive: 68%
88 | Cc1ccc(C)c(N2CCN(S(=O)(=O)c3ccc(-c4cnc(C5CC5)o4)cc3)CC2)c1 | inactive: 80%
